From patent publication US20230277682A1 (priority 2022, published 2023)

B1: 10985-12b (conjugate)
heavy: EVQLVESGGGLVQPGRSLRLSCAASGFTFDDYAMHWVRQAPGKGLEWVSGISWNRGSIGYADSVKGRFTISRDNAKNSLYLQMSSLRAEDTALYYCAKDGERWDSVVVPSARNGMDVWGQGTTVTVSS[human IgG1 constant region omitted here]
light: QSVLTQPPSVSGAPGQRVTISCTGSSSNIGAGYDVHWYQQLPGTAPKLLIYGNSNRPSGVPDRFSGSKSGTSASLAITGLQAEDEADYYCQSYDSSLSGSYVFGTGTKVTVLGQPKAAPSVTLFPPSSEELQANKATLVCLISDFYPGAVTVAWKADSSPVKAGVETTTPSKQSNNKYAASSYLSLTPEQWKSHRSYSCQVTHEGSTVEKTVAPTECS
B2: 10985-HC-Cterm-LLQGA-10b (conjugate)
heavy: EVQLVESGGGLVQPGRSLRLSCAASGFTFDDYAMHWVRQAPGKGLEWVSGISWNRGSIGYADSVKGRFTISRDNAKNSLYLQMSSLRAEDTALYYCAKDGERWDSVVVPSARNGMDVWGQGTTVTVSS[human IgG1 constant region and a few adjoining residues omitted here]
light: B1 light
B3: 4A8-HC-Cterm-LLQGA-1 Ob (conjugate)
heavy: EVQLVESGAEVKKPGASVKVSCKVSGYTLTELSMHWVRQAPGKGLEWMGGFDPEDGETMYAQKFQGRVTMTEDTSTDTAYMELSSLRSEDTAVYYCATSTAVAGTPDLFDYYYGMDVWGQGTTVTVSS[human IgG1 constant region and a few adjoining residues omitted here]
light: EIVMTQSPLSSPVTLGQPASISCRSSQSLVHSDGNTYLSWLQQRPGQPPRLLIYKISNRFSGVPDRFSGSGAGTDFTLKISRVEAEDVGVYYCTQATQFPYTFGQGTKVDIKRTVAAPSVFIFPPSDEQLKSGTASVVCLLNNFYPREAKVQWKVDNALQSGNSQESVTEQDSKDSTYSLSSTLTLSKADYEKHKVYACEVTHQGLSSPVTKSFNRGEC

System: VSVAG expressing the spike protein of SARS-CoV-2
Assay type: cell-based

| Molecule | Fold Increase over Parental Antibody [fold] |
| --- | --- |
| B1 | 2.2 |
| B2 | 2.5 |
| B3 | 2.8 |
